Source: the supplement of paper PMC7826260
This is one part of the list. One pool of 16,384 single-stranded DNAs met each Rep nickase domain in vitro (3 µM enzyme, 1 h, 37 °C); shown is the middle of each 90-letter strand. A value is the log2 ratio of uncut reads to the pool without enzyme; uncut sequences lie near 0, cut ones below; no hit call is given. Because reads are shares of a total, they shift together; values above 0 arise when much of the pool is cut.

Key:
Assay in all cases: uncleaved DNA left, log2 of reads against the no-enzyme library (log2 ratio); higher = less cleavage (more negative = more Rep cleavage of the k-mer); sequences stand for … in CTCGTCCG…ACCGGAGA
[1] = test system: T1, Rep nickase domain of Muscovy duck circovirus
T1 sequence (Rep 1-111, printed without the tag): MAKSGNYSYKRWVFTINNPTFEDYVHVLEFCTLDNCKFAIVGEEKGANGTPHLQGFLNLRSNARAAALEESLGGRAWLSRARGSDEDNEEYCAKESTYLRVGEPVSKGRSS
Procedure: (§1)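 A pool of 90-nt single-stranded DNAs with seven random bases just before the constant AC of the nick site (name = the seven bases) was cut by 3 µM recombinant His6-SUMO-tagged Rep nickase domain (300 nM DNA, 50 mM HEPES pH 8.0, 50 mM NaCl, 1 mM MnCl2, 1 h, 37 °C, three replicates). Uncut DNA was amplified and sequenced.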

[2] = test system: T2, Rep nickase domain of banana bunchy top virus
T2 sequence (Rep 1-94, printed without the tag): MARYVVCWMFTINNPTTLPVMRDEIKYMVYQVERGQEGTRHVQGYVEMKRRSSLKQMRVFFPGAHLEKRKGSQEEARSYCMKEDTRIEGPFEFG
Procedure: as §1

[3] = test system: T3, Rep nickase domain of cabbage leaf curl virus
T3 sequence (Rep 1-116, printed without the tag): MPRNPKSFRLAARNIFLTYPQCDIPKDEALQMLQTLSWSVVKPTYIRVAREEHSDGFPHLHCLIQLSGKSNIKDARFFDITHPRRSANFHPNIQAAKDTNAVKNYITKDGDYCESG
Procedure: as §1

[4] = test system: T4, Rep nickase domain of chickpea chlorotic dwarf virus
T4 sequence (Rep 1-124, printed without the tag): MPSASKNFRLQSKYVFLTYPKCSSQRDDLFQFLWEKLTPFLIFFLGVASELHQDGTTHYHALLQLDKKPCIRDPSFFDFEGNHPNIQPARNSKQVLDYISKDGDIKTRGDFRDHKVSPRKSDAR
Procedure: as §1

[5] = test system: T5, Rep nickase domain of faba bean necrotic yellows virus
T5 sequence (Rep 1-98, printed without the tag): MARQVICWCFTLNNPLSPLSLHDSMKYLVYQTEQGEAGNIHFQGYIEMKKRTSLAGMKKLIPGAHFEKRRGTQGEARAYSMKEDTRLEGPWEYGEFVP
Procedure: as §1

[6] = test system: T6, Rep nickase domain of maize striate mosaic virus
T6 sequence (Rep 1-117, printed without the tag): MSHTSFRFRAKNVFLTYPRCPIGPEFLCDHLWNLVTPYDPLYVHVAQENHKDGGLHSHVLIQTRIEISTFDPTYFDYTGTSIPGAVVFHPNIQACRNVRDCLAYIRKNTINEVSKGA
Procedure: as §1

[7] = test system: T7, Rep nickase domain of porcine circovirus 2
T7 sequence (Rep 2-116, printed without the tag): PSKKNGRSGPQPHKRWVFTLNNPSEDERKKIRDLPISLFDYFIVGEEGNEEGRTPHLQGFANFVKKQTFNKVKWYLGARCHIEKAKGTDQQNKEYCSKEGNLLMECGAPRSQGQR
Procedure: as §1

[8] = test system: T8, Rep nickase domain of tomato golden mosaic virus
T8 sequence (Rep 1-124, printed without the tag): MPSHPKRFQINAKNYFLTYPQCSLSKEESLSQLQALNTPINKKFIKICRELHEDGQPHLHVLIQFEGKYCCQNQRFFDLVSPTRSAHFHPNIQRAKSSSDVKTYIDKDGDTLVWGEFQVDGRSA
Procedure: as §1

[9] = test system: T9, Rep nickase domain of tomato yellow leaf curl virus
T9 sequence (Rep 1-136, printed without the tag): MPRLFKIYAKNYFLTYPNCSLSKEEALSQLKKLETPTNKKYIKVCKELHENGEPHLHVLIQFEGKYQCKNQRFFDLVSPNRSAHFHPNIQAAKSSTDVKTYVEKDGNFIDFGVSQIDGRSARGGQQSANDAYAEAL
Procedure: as §1

[10] = test system: T10, Rep nickase domain of wheat dwarf virus
T10 sequence (Rep 1-137, printed without the tag): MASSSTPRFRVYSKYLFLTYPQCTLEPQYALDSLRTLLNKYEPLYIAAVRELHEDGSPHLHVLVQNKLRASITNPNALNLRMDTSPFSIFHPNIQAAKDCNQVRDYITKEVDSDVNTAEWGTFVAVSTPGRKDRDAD
Procedure: as §1

Sequence | uncleaved DNA left (log2) [1] | uncleaved DNA left (log2) [2] | uncleaved DNA left (log2) [3] | uncleaved DNA left (log2) [4] | uncleaved DNA left (log2) [5] | uncleaved DNA left (log2) [6] | uncleaved DNA left (log2) [7] | uncleaved DNA left (log2) [8] | uncleaved DNA left (log2) [9] | uncleaved DNA left (log2) [10]
GACGAAT | -0.0616 | -0.00775 | 0.214 | 0.138 | -0.129 | 0.955 | -0.0329 | 0.0229 | -0.212 | 0.0561
TGCGGTG | 0.0772 | 0.006 | -0.0378 | 0.388 | 0.0763 | 0.911 | 0.22 | 0.233 | 0.0451 | 0.00629
CCTCATC | 0.124 | 0.0408 | 0.0754 | -0.159 | 0.0191 | -0.637 | -0.0118 | -0.00328 | 0.0203 | 0.0335
TACCGAA | -0.0401 | -0.0202 | 0.0446 | -0.738 | 0.0836 | -0.488 | -0.351 | 0.0415 | -0.171 | -0.11
TTGTTGA | 0.0477 | 0.0635 | -0.182 | -0.346 | 0.0266 | -0.95 | 0.0454 | -0.0452 | 0.12 | -0.0835
CTCTCCC | -0.223 | -0.184 | 0.0212 | -0.206 | -0.051 | 0.302 | -0.113 | -0.215 | -0.0722 | -0.0359
GAATTAC | 0.0972 | 0.0363 | -0.0772 | -0.909 | 0.0984 | 0.53 | -0.0275 | 0.034 | 0.158 | 0.0236
TGAAAAC | 0.0746 | 0.0755 | 0.362 | 0.465 | 0.00839 | 0.577 | 0.0784 | 0.0639 | -0.00974 | 0.157
GCCCGCC | 0.00777 | -0.0185 | 0.123 | 0.48 | -0.0809 | 0.25 | 0.119 | 0.0683 | -0.0906 | -0.077
GTAGTCA | 0.0831 | 0.0255 | 0.324 | 0.713 | -0.0715 | 1.57 | 0.0387 | -0.0286 | -0.00433 | 0.0294
AAAGTGA | -0.0213 | -0.0128 | -0.174 | -0.17 | 0.0356 | -0.642 | 0.0111 | -0.0693 | -0.133 | 0.0149
CCTAACG | 0.0279 | -0.0404 | -0.712 | -0.237 | -0.0854 | -1.05 | 0.0651 | -0.0396 | -0.0945 | 0.0181
GCTATCA | 0.0937 | 0.152 | 0.301 | 0.456 | -0.0607 | 0.73 | 0.00961 | 0.0283 | 0.198 | 0.151
CGGACAT | -0.0367 | -0.0701 | 0.834 | 2.02 | -0.0116 | 2.32 | 0.2 | -0.226 | -0.0578 | 0.146
GTACCGA | 0.112 | 0.0416 | 0.277 | 0.514 | 0.0419 | 0.618 | 0.0736 | 0.0554 | 0.0272 | 0.118
